The source gives no read counts; variants with many changes may rest on few reads.
B1: LINE1-mini (parent)
chain: GGCAGAGCUCAACACAGCGUGGCAAAGUGGCUGUGGCUAGACUGCC

Variants of: B1
Assay: self-cleavage, relative activity (ratio to wild type); higher = more cleavage; in vitro, sequencing; the parent is a self-cleaving ribozyme

Row | Variant | self-cleavage
1 | A11U U32G G35A | 0
2 | C15U G17U U32G C46G | 0.02
3 | G5C U9C A12C U38G G40U C45U | 0.03
4 | A6C A11C G33A | 0.01
5 | C10G C31U C42A | 0
6 | A6G A11C G17A U20A U43G | 0
7 | A11C C13A C42G | 0.02
8 | C8G G30A U34C G35U | 0.08
9 | C13G A25U U32A G35U | 0.02
10 | C23A C42A C46A | 0.47
11 | C8G C37U A39G | 0
12 | A4C A24C G35C | 0.03
13 | C3U A12C A16C | 0.04
14 | C3G U20G C37G | 0.01
15 | C3U G19C A24C G36U | 0.03
16 | A4G G5A C8U C15G A16C U34G G35A | 0.03
17 | G5A U9A G27U G33C U38G | 0.03
18 | C8U G30A U38A | 0.07
19 | G1U C10A C31A C42U | 0.01
20 | A4C G33C G36C A39C | 0
21 | A6C C8G G19C U20G | 0.04
22 | G2U A14C G40C | 0.03
23 | G2U A24G G27C C31G | 0.02
24 | U20C G21U G27A C45G | 0.09

Row | Variant | self-cleavage
25 | G1U G7A C13A | 0.08
26 | G2C C3A A14C G27A G35A | 0.08
27 | G2C A14C G17A U32A G36A | 0.14
28 | A6C A12U A25C C45U | 0.06
29 | C3G C8G A11C C13U C18G G35A C37A | 0.02
30 | G7C C10A C18A G19A G35U C37A | 0.04
31 | C15A G22A U28A U38A | 0.17
32 | A25G U34G A39U | 0.01
33 | U9G A11U U43A C46A | 0
34 | G1C A4G A24G | 0.12
35 | G5A A16G A25C C37G | 0.01
36 | C3G A4C G7A A11C | 0.02
37 | G1U G21C U28C C45A | 0.29
38 | C13G A26U U28G C45G | 0.06
39 | A12U C13U G40A | 0.03
40 | A6C G27A C31A | 0.22
41 | A6G C15A G22A A25U | 0.08
42 | G17A G19U A41U | 0.05
43 | C10G C15G A16U G29C C42A | 0
44 | C3A C8A C31U | 1.12
45 | A12U G27U G29U | 0.14
46 | G2C C13A A14G | 0.21
47 | G1C A26G G29A A41C | 0
48 | C13A G33U C46G | 0.06

Row | Variant | self-cleavage
49 | G7C C15A C42G | 0.03
50 | C10U A11U G29A C31U | 0.5
51 | C13G C23G A25U C31U | 0.04
52 | A16C A39G A41C | 0.01
53 | A4U C23A G29U | 0.17
54 | A12G G19A U20A A26U | 0.01
55 | A14G G30U C37G | 0.22
56 | U38G C42U C45U | 0.01
57 | G19U G27A C42U | 0.83
58 | A11G G29A G30A | 0.07
59 | C18A U20G G33U | 0.03
60 | G2U G7A C8U A11C G35U U38C | 0.02
61 | A11C C13A U34G C45A | 0.01
62 | G27U U28A G35C C46U | 0.23
63 | C31U U38G G44A | 0.11
64 | G2C C13G G29U | 0.04
65 | G2U C31A A41C C46U | 0
66 | G2A C13A A16U | 0.18
67 | A11U A14G C15A G35C | 0.01
68 | G1U G7U A11U A14G U32G | 0.02
69 | G1A G2A G17U G19U A26U | 0.41
70 | A11C A12G G17U G30U C46G | 0.04
71 | G5C A16G G27A A39C G40U | 0.02
72 | G30A C31G U32A | 0.04

Row | Variant | self-cleavage
73 | C10A A25C C31A | 0.04
74 | A12U C18G U38A G40A C42U | 0.02
75 | A16U G19C C45A | 0.09
76 | G2C A4C G17U G33U | 0.02
77 | C18A G19A C23U | 0.16
78 | G19C A26C C37A G44U | 0.07
79 | G2C G19A G30U C45G | 0.25
80 | C10A C13U C42A | 0.03
81 | G29C U34C C37A U38A A39C | 0
82 | G22U G27A U28A U38C | 0.07
83 | A24U G33A U34A | 0.04
84 | C8G G19C C23U U28G G33U G40A C46U | 0.01
85 | G1A A12U G22U C31G C42G | 0.04
86 | G5A C10A C13A A26C | 0.01
87 | A4G G5U A12G C18A A24U G33C | 0.02
88 | C3U A6U A24C | 0.28
89 | G22A C31A G44A | 0.07
90 | U38G G40C C42A | 0.04
91 | C8A C13U C18A G33U A39U C45A | 0.02
92 | A6U C13G A16U U20G A24G G40U C46U | 0.07
93 | G7A C10A C15G U28A | 0.01
94 | C10G C13A C18U G40C C42A | 0.02
95 | A11C C18U C42A C46G | 0.01
96 | G7C C8A C15A G19A | 0.29

Row | Variant | self-cleavage
97 | G7A G17U G35A A39C | 0.1
98 | G22C G30U U32G C46U | 0.02
99 | C3U A4G A14C G19U G22U A26C | 0.02
100 | G19A G30U C37A A39G | 0.06
101 | C31G U32A C37U | 0.03
102 | C10A G21A U28G | 0.02
103 | A6U G30U G33A | 0.03
104 | G1A G22C G33A | 0.02
105 | G19C U20A C45U | 1.37
106 | A11U G17U C45U | 0.04
107 | C3G G21U A24G C37U G40A | 0.24
108 | C8A U32A A41U | 0.57
109 | U9C A12G G40C | 0.01
110 | G7A C31A U32G G35U | 0.02
111 | G1U A14U G29U G30A | 0.06
112 | C3A C10U U28A G30C U34C G44U | 0.08
113 | G1U C3A G22U | 0.2
114 | C13G A26U G40A | 0.08
115 | G1U G19U A24C U28C G29U | 0.18
116 | G17A C18U A41U | 0.02
117 | A12U C13U C23G | 0.35
118 | A6C C8G G35C G44A | 0.01
119 | G17U C23A C42A | 0.15
120 | G5A G21A G27U U32A | 0.49

Row | Variant | self-cleavage
121 | C10G G22A G29C | 0.02
122 | A4G A12U C23U A41G | 0.1
123 | G1U A14C A25G G29C C31U G35C | 0.02
124 | A16C G22A C23U | 0.13
125 | G2A A14G C23U U28G | 0.68
126 | G29A G30C G35C C37U | 0.01
127 | C8G G40C A41C C46G | 0.01
128 | G2A U9C A12C C13A G35A | 0.02
129 | C3U A11C C23G | 0.02
130 | G5C U9G A16C G21U A39G | 0.02
131 | A6G G21U G29C C42U | 0.03
132 | C15U G35C U43C | 0.02
133 | G2C G17U G35U | 0.06
134 | C3G U20A U28A A41C | 0.09
135 | G1A C15U A16U C18G G29A G30A C31A | 0.01
136 | A6G A11C G40A C46G | 0.02
137 | G7A A12G C18A G36C U38C | 0.01
138 | C3A G5A G22C A26U | 0.22
139 | G29C G30U C42U C46U | 0.04
140 | U9G G27A C45A | 0.01
141 | G29A U32C U43A | 0.03
142 | U9G A12G G27A G40A | 0.1
143 | U9A A12U G35U A41G U43C G44C | 0
144 | C8U G17U U34C A39U G40A | 0.03

Row | Variant | self-cleavage
145 | C3A A4G C31A G44C C45G | 0.01
146 | G7U A16U G21U G22U C42A | 0.11
147 | G5C C10A G27U G30U U38G | 0.01
148 | G1A U9C U38A | 0.05
149 | C8A G29U U34C | 0.06
150 | A24U U38C C42A | 0.07
151 | A16C A39G G44U | 0.06
152 | C3U A6G A12U U20A C23U A39G C46A | 0.1
153 | U9A G17A A26U G30A G40U | 0.06
154 | C3U A12C C15A | 0.03
155 | C23A U32C C45G | 0.05
156 | C18G G36A U43A C45A | 0.02
157 | G17A G22C C31G U43C | 0
158 | G5U G27U G33A | 0.03
159 | G1C C10A C13A G30A | 0.01
160 | G2C A11U C15G C18U U20G | 0.02
161 | A12G A14C C18G U20A C37U | 0.11
162 | G19A A25U C46G | 1.11
163 | C3G A16C C18A G22A A41G | 0.09
164 | G1C A14U C42A | 0.01
165 | A6G G7U C18A G19A G22U U32A A41U | 0.11
166 | U9A C18A G30U | 0.1
167 | A12U G19A U34A | 0.06

From the RNAGym collection of RNA variant scans (doi:10.7554/elife.90254)
